Test results published in the supplement of paper PMC8728848.
The list shows a part of the results.

Key:
Assay in all cases: glycan array binding signal (z-score within array); higher = stronger binding
Settings in all cases: glycan notation: IUPAC condensed, linker removed
[1] = target: Fuc(a1-3)[Gal(b1-4)]GlcNAc(b1-3)Gal(b1-4)[Fuc(a1-3)]GlcNAc(b1-3)Gal(b1-4)[Fuc(a1-3)]GlcNAc
Method in brief: (§1)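 The binding signal is a Z-score computed within each array. Data were drawn from 3228 arrays in the Consortium for Functional Glycomics database, restricted to those with a known protein sequence. Scores were averaged over arrays of the same protein sequence at different concentrations or buffers, and over linkers, and negative values can be taken as non-binding.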

[2] = target: Fuc(a1-3)[Gal(b1-4)]GlcNAc(b1-3)GalNAc
Method in brief: as §1

[3] = target: Fuc(a1-3)[Gal(b1-4)]GlcNAc(b1-6)GalNAc
Method in brief: as §1

[4] = target: Fuc(a1-3)[Gal(b1-4)]GlcNAc(b1-6)[Gal(b1-3)GlcNAc(b1-3)]Gal(b1-4)Glc
Method in brief: as §1

[5] = target: Fuc(a1-3)[Gal(b1-4)]GlcNAc6S
Method in brief: as §1

[6] = target: Fuc(a1-3)[Gal3S(b1-4)]Glc
Method in brief: as §1

[7] = target: Fuc(a1-3)[Gal3S(b1-4)]GlcNAc
Method in brief: as §1

[8] = target: Fuc(a1-3)[Gal3S(b1-4)]GlcNAc6S
Method in brief: as §1

[9] = target: Fuc(a1-3)[GalNAc(b1-4)]GlcNAc
Method in brief: as §1

[10] = target: Fuc(a1-3)[GalNAc(b1-4)]GlcNAc6S
Method in brief: as §1

Fuc(a1-4)GlcNAc = target: Fuc(a1-4)GlcNAc
Method in brief: as §1

Fuc(b1-3)GlcNAc = target: Fuc(b1-3)GlcNAc
Method in brief: as §1

Gal(a1-2)Gal = target: Gal(a1-2)Gal
Method in brief: as §1

Gal(a1-3)Gal = target: Gal(a1-3)Gal
Method in brief: as §1

Gal(a1-3)Gal(b1-3)GlcNAc = target: Gal(a1-3)Gal(b1-3)GlcNAc
Method in brief: as §1

[11] = target: Gal(a1-3)Gal(b1-3)GlcNAc(b1-2)Man
Method in brief: as §1

[12] = target: Gal(a1-3)Gal(b1-3)GlcNAc(b1-2)Man(a1-3)[Gal(a1-3)Gal(b1-3)GlcNAc(b1-2)Man(a1-6)]Man(b1-4)GlcNAc(b1-4)GlcNAc
Method in brief: as §1

[13] = target: Gal(a1-3)Gal(b1-3)GlcNAc(b1-3)GalNAc
Method in brief: as §1

[14] = target: Gal(a1-3)Gal(b1-3)GlcNAc(b1-6)GalNAc
Method in brief: as §1

[15] = target: Gal(a1-3)Gal(b1-3)[Fuc(a1-4)]GlcNAc(b1-2)Man(a1-3)[Gal(a1-3)Gal(b1-3)[Fuc(a1-4)]GlcNAc(b1-2)Man(a1-6)]Man(b1-4)GlcNAc(b1-4)GlcNAc
Method in brief: as §1

Gal(a1-3)Gal(b1-4)Glc = target: Gal(a1-3)Gal(b1-4)Glc
Method in brief: as §1

Gal(a1-3)Gal(b1-4)GlcNAc = target: Gal(a1-3)Gal(b1-4)GlcNAc
Method in brief: as §1

[16] = target: Gal(a1-3)Gal(b1-4)GlcNAc(b1-2)Man
Method in brief: as §1

[17] = target: Gal(a1-3)Gal(b1-4)GlcNAc(b1-2)Man(a1-3)[Gal(a1-3)Gal(b1-4)GlcNAc(b1-2)Man(a1-6)]Man(b1-4)GlcNAc(b1-4)GlcNAc
Method in brief: as §1

[18] = target: Gal(a1-3)Gal(b1-4)GlcNAc(b1-3)GalNAc
Method in brief: as §1

[19] = target: Gal(a1-3)Gal(b1-4)GlcNAc(b1-6)GalNAc
Method in brief: as §1

[20] = target: Gal(a1-3)Gal(b1-4)[Fuc(a1-3)]GlcNAc
Method in brief: as §1

[21] = target: Gal(a1-3)Gal(b1-4)[Fuc(a1-3)]GlcNAc(b1-2)Man(a1-3)[Gal(a1-3)Gal(b1-4)[Fuc(a1-3)]GlcNAc(b1-2)Man(a1-6)]Man(b1-4)GlcNAc(b1-4)GlcNAc
Method in brief: as §1

Gal(a1-3)GalNAc = target: Gal(a1-3)GalNAc
Method in brief: as §1

[22] = target: Gal(a1-3)[Gal(a1-4)]Gal(b1-4)GlcNAc
Method in brief: as §1

[23] = target: Gal(a1-4)Gal(b1-3)GlcNAc(b1-2)Man(a1-3)[Gal(a1-4)Gal(b1-3)GlcNAc(b1-2)Man(a1-6)]Man(b1-4)GlcNAc(b1-4)GlcNAc
Method in brief: as §1

Gal(a1-4)Gal(b1-4)Glc = target: Gal(a1-4)Gal(b1-4)Glc
Method in brief: as §1

Gal(a1-4)Gal(b1-4)GlcNAc = target: Gal(a1-4)Gal(b1-4)GlcNAc
Method in brief: as §1

[24] = target: Gal(a1-4)Gal(b1-4)GlcNAc(b1-2)Man(a1-3)[Gal(a1-4)Gal(b1-4)GlcNAc(b1-2)Man(a1-6)]Man(b1-4)GlcNAc(b1-4)GlcNAc
Method in brief: as §1

[25] = target: Gal(a1-4)Gal(b1-4)GlcNAc(b1-3)Gal(b1-4)Glc
Method in brief: as §1

Gal(a1-4)GlcNAc = target: Gal(a1-4)GlcNAc
Method in brief: as §1

Gal(a1-6)Glc = target: Gal(a1-6)Glc
Method in brief: as §1

Gal(b1-2)Gal = target: Gal(b1-2)Gal
Method in brief: as §1

B1: FliD (Clostridium difficile) (protein)
chain: MSSISPVRVTGLSGNFDMEGIIEASMIRDKEKVNKAKQDQQIVKWKQEIYRDIIKESKNLYDKYLNGDSPNSITNKKAYSATRITSSDESIIVAKGSAGAEKINYQFAVSQMAEPAKVTIKLNSSDPIVQQFPPNASGASSLNIGGVNIPISEQDTTSTIVSKINSLCADNDIRASYSEMTGELIISRKQTGSSSDIDLKVIGNDSLAGQIASDNGITFTTDASGTKSAVVYGKNLEADVTDDQGRVTHISKEQNSFKIDNIDYNVNSKGSAKLVSVTDTEEATKNMKAFVDDYNALMDKVYGLVTTKKSKDYPPLTDEQKDDMTTEEIEKWEKKAKEGILRNDDELRAFVEDIQSMFFGDADTIIALRKLGISEHENYNKKGQISFNADTFSKALIDDSDKVYKALAGYSSNYDDKGMFEKLKKIVFEYSGSSASKLTKKAGMENSSSASQNVYSKQIAEQERNISRLVEKMNDKEKRLYAKYSALESLLNKYSSQMNYFSQAQGN
[1]
  glycan array binding signal (z-score): -0.23
[2]
  glycan array binding signal (z-score): -0.187
[3]
  glycan array binding signal (z-score): 0.029
[4]
  glycan array binding signal (z-score): -0.179
[5]
  glycan array binding signal (z-score): 0.05
[6]
  glycan array binding signal (z-score): -0.047
[7]
  glycan array binding signal (z-score): 0.003
[8]
  glycan array binding signal (z-score): -0.134
[9]
  glycan array binding signal (z-score): -0.171
[10]
  glycan array binding signal (z-score): -0.16
Fuc(a1-4)GlcNAc
  glycan array binding signal (z-score): -0.177
Fuc(b1-3)GlcNAc
  glycan array binding signal (z-score): -0.183
Gal(a1-2)Gal
  glycan array binding signal (z-score): 0.025
Gal(a1-3)Gal
  glycan array binding signal (z-score): 0.022
Gal(a1-3)Gal(b1-3)GlcNAc
  glycan array binding signal (z-score): 12.1
[11]
  glycan array binding signal (z-score): -0.125
[12]
  glycan array binding signal (z-score): -0.116
[13]
  glycan array binding signal (z-score): 0.003
[14]
  glycan array binding signal (z-score): -0.173
[15]
  glycan array binding signal (z-score): -0.197
Gal(a1-3)Gal(b1-4)Glc
  glycan array binding signal (z-score): -0.038
Gal(a1-3)Gal(b1-4)GlcNAc
  glycan array binding signal (z-score): -0.151
[16]
  glycan array binding signal (z-score): -0.211
[17]
  glycan array binding signal (z-score): 0.665
[18]
  glycan array binding signal (z-score): -0.19
[19]
  glycan array binding signal (z-score): -0.204
[20]
  glycan array binding signal (z-score): 0.134
[21]
  glycan array binding signal (z-score): -0.093
Gal(a1-3)GalNAc
  glycan array binding signal (z-score): -0.255
[22]
  glycan array binding signal (z-score): 0.673
[23]
  glycan array binding signal (z-score): 0.553
Gal(a1-4)Gal(b1-4)Glc
  glycan array binding signal (z-score): -0.264
Gal(a1-4)Gal(b1-4)GlcNAc
  glycan array binding signal (z-score): -0.161
[24]
  glycan array binding signal (z-score): 0.556
[25]
  glycan array binding signal (z-score): 0.027
Gal(a1-4)GlcNAc
  glycan array binding signal (z-score): 1.22
Gal(a1-6)Glc
  glycan array binding signal (z-score): 0.118
Gal(b1-2)Gal
  glycan array binding signal (z-score): 1.49
